Test results taken from PubChem BioAssay AID1346428 (National Center for Advancing Translational Sciences (NCATS), 2018).
Several values for one entry are separate records, joined by “and”; a condition that tells them apart may be missing. Identical values can stand only once. In all, about 48,000 compounds went through this assay and about 1,200 (2.5%) were called active. Another 2% or so got no clear call; they are omitted.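 Rule for the calls: active = activation of at least 60% and not above a set upper limit (about 1 call in 100 departs from these limits); inconclusive = activation of 40% to 60%, or above that upper limit; inactive = activation under 40%.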 This is one part of the list.

molecular target: Probable G-protein coupled receptor 32 (Homo sapiens) (UniProt O75388); assay: qHTS for Agonists of Human Resolvin D1 Receptor DRV1; conditions: CHO-K1 GPR32 beta-arrestin PathHunter luminescence, 90 min; at 76.9 µM; active compounds read high; zero percent set by DMSO-only wells; note: 0% is about no effect
Sequence of UniProt O75388 (O75388 whole entry, looked up, the tested form may be a part): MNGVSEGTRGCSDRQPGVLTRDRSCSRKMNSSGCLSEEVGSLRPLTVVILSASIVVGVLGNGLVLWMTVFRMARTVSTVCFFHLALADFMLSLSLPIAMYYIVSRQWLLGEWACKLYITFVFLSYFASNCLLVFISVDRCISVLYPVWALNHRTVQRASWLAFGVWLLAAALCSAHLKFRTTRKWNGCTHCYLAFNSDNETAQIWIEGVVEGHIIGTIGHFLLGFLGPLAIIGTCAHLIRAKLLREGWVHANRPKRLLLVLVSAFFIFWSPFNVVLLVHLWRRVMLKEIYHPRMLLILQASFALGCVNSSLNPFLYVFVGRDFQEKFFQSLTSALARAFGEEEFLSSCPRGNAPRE
Outline: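 Agonism was scored by beta-Gal fragment complementation (chemiluminescent read, 1 h detection at ambient temperature) reporting beta-arrestin binding to GPR32 in engineered CHO-K1 cells. Compound treatment lasted 90 min at 37 C, normalized to a DMSO basal control.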

SMILES	activation
CCN(CC)c1cc(C)c2cc(NC(=O)c3cccc(F)c3)ccc2n1	active: 92.4%
CSc1ccc(CCNC(=O)c2cnn(-c3ccccc3)c2-n2cccc2)cc1	inactive: -2.99%
O=C(Nc1cccc(Cl)c1)N1CCSc2ccccc21	inactive: -29.9%
Cc1cccc(NC(=O)c2cc(S(=O)(=O)N3CCc4ccccc43)ccc2F)c1C	inactive: -19.2%
COCCCNC(=O)CS(=O)Cc1nc(-c2cccc(C)c2)oc1C (centres undefined)	inactive: -4.27%
COc1ccc(OC)c(-c2cc(C(=O)NCCc3ccccc3)c3c(-c4ccc(C)cc4)[nH]nc3n2)c1	inactive: 17.2%
CCOC(=O)c1cnc2c(ccc3ccccc32)c1Nc1ccccc1OCC	inactive: -8.53%
COc1ccc(N2CCN(C(=O)C3CCCN(S(=O)(=O)c4ccc5c(c4)CCCN5C(C)=O)C3)CC2)cc1 (centres undefined)	inactive: 2.66%
CCCn1cc(S(=O)(=O)c2ccccc2)c(=O)c2cc(F)c(N3CCCCC3)cc21	inactive: -15.9%
Cc1ccc(N2C(=O)CSC23C(=O)N(CC(=O)NCCc2ccccc2)c2ccccc23)cc1C (centres undefined)	inactive: 0.475%
CC(NC(=O)CCCC1=NS(=O)(=O)c2ccccc2N1)c1ccccc1 (centres undefined)	inactive: -6.03%
CCOc1ccccc1NC(=O)c1c(NC(=O)COc2ccccc2)sc2c1CCCCC2	inactive: -2.03%
C[C@@H](O)[C@H]1C(=O)N2C(C(=O)O)=C(S[C@@H]3CN[C@H](C(=O)N(C)C)C3)[C@H](C)[C@H]12	inactive: -0.154% and inactive: 1.34%
COc1ccc(NC(=O)CC2C(=O)N(c3ccc(F)cc3)C(=O)N2Cc2ccc3c(c2)OCO3)cc1 (centres undefined)	inactive: -18.8%
COc1ccc(-c2c(C)nn3c(N4CCN(c5ccccc5)CC4)cc(C)nc23)cc1OC	inactive: -38%
COc1ccc(/C=C(/C#N)c2nc(-c3ccc(-c4ccccc4)cc3)cs2)cc1OC	inactive: 15%
CCCn1c(=N)c(C(=O)NC2CCCC2)cc2c(=O)n3cccc(C)c3nc21	inactive: 5.51%
Cc1noc(C)c1S(=O)(=O)Nc1ccc(C(=O)Nc2ccc(Br)cc2)cc1	active: 95.4%
CCc1cccc(C)c1NC(=O)c1cc(S(=O)(=O)N2CCOCC2)cn1C	inactive: -5.9%
CCOC(=O)c1ccccc1NC(=O)n1ncc2cc(Cl)ccc21	inactive: 0.388%
COc1cc(NC(=O)CCn2cnc3ccccc3c2=O)cc(OC)c1	inactive: -7.8%

SMILES	activation
CCOc1cccc(C(=O)Nc2ccc3oc(-c4cccnc4)nc3c2)c1	active: 107%
COc1ccc(OCCn2c(C)nc3cc(C)c(C)cc32)cc1	inactive: -5.87%
CCCCSCCCNC(=O)c1cn(CC)c2ccc(S(=O)(=O)N3CCCCCC3)cc2c1=O	inactive: -9.53%
CCCCOc1ccc(CNC(=O)c2cc3n(n2)CCCN(Cc2ccc(C)cc2)C3=O)cc1	inactive: 3.28%
CNC(=O)C1CCC(Cn2c(=O)c3sccc3n(CC(=O)NCc3cccc(OC)c3)c2=O)CC1 (centres undefined)	inactive: -12.8%
Cc1cccc(-c2nc3scc(CCNC(=O)c4ccc(Br)o4)n3n2)c1	inactive: -21.5%
CCC(CC)C(=O)Nc1ccc(-c2cn3cccnc3n2)cc1	inactive: 27.9%
COc1ccc(CCNC(=O)CCc2c(C)nc3cc(-c4ccccc4OC)nn3c2C)c(OC)c1	inactive: -8.81%
CCOC(=O)N1CCN(c2ncc3c(n2)CC(c2ccccc2O)CC3=O)CC1 (centres undefined)	active: 76.4%
COc1ccc(/C=C\c2onc(C)c2S(=O)(=O)N2CCC(C(=O)Nc3cccc(Cl)c3)CC2)cc1	inactive: -10.4%
COc1ccccc1NC(=O)CSc1nnc2c3ccccc3n(C(C)C)c2n1	inactive: -44.3%
CCCCCCCC/C=C\CCCCCCCC(=O)NCCO	inactive: -8.24%
COc1ccc(CNC(=O)CN2C(=O)COc3ccc(S(=O)(=O)NC4CCCC4)cc32)cc1	inactive: -3.92%
COc1cccc(C(=O)N2CCc3c([nH]c4ccccc34)C2c2ccc(SC)cc2)c1 (centres undefined)	inactive: -31.7%
Cc1ccc(Nc2nnc(-c3cc4c(ccc5ccccc54)oc3=O)s2)cc1	inactive: 0.479%
COc1cccc(CNC(=O)CCCN2C(=O)CCn3nc(-c4cccn4C)cc32)c1	inactive: -11.1%
CCOc1ccc(CCNC(=O)c2csc3c2CCCCC3)cc1	inactive: 3.74%
CCn1c(=O)c2cc(C(=O)N(CC(C)C)CC(C)C)sc2c2ccccc21	inactive: -7.3%
CCOC(=O)c1cccc(NC(=O)Cn2c(=O)nc(-c3ccccc3F)c3cc(Cl)ccc32)c1	inactive: -15.5%
Cc1ccc(CNc2ncnc3c2nc2n3CCCC2)cc1	inactive: 3.93%
CCOC(=O)c1ccc(NC(=O)CN2c3ccccc3S(=O)(=O)c3ccccc32)cc1	inactive: -8.95%

SMILES	activation
CCOC(=O)c1cc(-c2ccccc2)n(CCC(=O)NC2CCCCC2)c1C	inactive: -18.9%
Cc1ccc2nc(CSc3nnc(NC(=O)c4cccc(Br)c4)s3)cc(=O)n2c1	inactive: 1.86%
CCN(C(=O)CSc1nc2ccccc2n1CC(=O)NCc1ccc(OC)cc1)c1ccccc1	inactive: -3.67%
CCc1ccc(-n2c(-c3ccccc3)c(C)n3c4c(=O)n(C)c(=O)n(C)c4nc23)cc1	inactive: -8.98%
COc1cccc(N2C(=O)N(CC(=O)NCc3cccc(OC)c3OC)c3ccccc3S2(=O)=O)c1	inactive: -0.608%
Cc1ccc2cccc(NC(=O)c3ccc(-c4ccc(Br)cc4)o3)c2n1	inactive: 0.332%
Cc1cc(=O)c2cc(C(=O)Nc3ccccc3)ccc2[nH]1	inactive: 1.8%
CCc1ccccc1Nc1ncnc2c1nc1n2CCCC1	inactive: -11.9%
COc1cccc(C2C(C(=O)Nc3ccccc3OC)=C(C)Nc3nc4ccccc4n32)c1 (centres undefined)	inactive: 20%
NS(=O)(=O)c1ccc(CCNC(=O)c2nc(SCc3ccccc3F)ncc2Cl)cc1	active: 82.6%
O=C(CSc1nnc(CNC(=O)c2ccccc2)n1-c1cccc(Cl)c1)Nc1ccccc1F	inactive: -17.5%
COc1ccc2oc(=O)c(C(=O)NCCc3c(C)[nH]c4ccc(Br)cc34)cc2c1	inactive: -5.18%
CC(=O)O[C@H]1C[C@@H]2CC[C@@H]3[C@H](CC[C@@]4(C)[C@H]3C[C@H]([N+]3(C)CCCCC3)[C@@H]4OC(C)=O)[C@@]2(C)C[C@@H]1N1CCCCC1	inactive: 10.1%
O=C(Nc1ccc(F)cc1)c1cccn1-c1nnc(N2CCCCC2)s1	inactive: -27.5%
CCOC(=O)c1c(C)oc2nc(C)nc(N3CCN(c4ccccc4)CC3)c12	inactive: -12.2%
COc1ccccc1N1CCN(C(=O)CCS(=O)(=O)c2cc(Br)cc3c2N(C(=O)C2CC2)CC3)CC1	inactive: -4.74%
CCCNC(=O)c1cnc2sc(N3CCCCC3)nn2c1=O	inactive: 9.49%
Cc1cn2c(=O)cc(COc3ccccc3NC(=O)c3ccccc3C)nc2s1	inactive: 3.56%
Cc1ccc(-c2csc(/C(C#N)=C/c3ccccc3Cl)n2)cc1	inactive: -14.8%
O=C(NCc1cccc(F)c1)C1CCN(C(=O)c2sccc2-n2cccc2)CC1	inactive: -4%
O=C(Nc1cc(NC(=O)c2ccccc2Cl)ccc1Cl)c1ccccc1	inactive: -16.8%

SMILES	activation
CCOc1ccccc1CNC(=O)c1ccc2nc(Cc3ccc(OC)cc3)oc2c1	inactive: -2.74%
Cc1cc(C)cc(OCC2CNC(=O)O2)c1 (centres undefined)	inactive: 4.68%
CCOCCCNC(=O)NC(CCC(C)C)c1c(-n2cccc2)sc2c1CCN(C)C2 (centres undefined)	inactive: -25.1%
CCc1ccc(NC(=O)CSc2cn(CC(=O)N3CCCC3)c3ccccc23)cc1	inactive: 9.59%
COc1ccc(N2CCN(C(=O)CCNS(=O)(=O)c3ccc4c(c3)CCN4C(=O)C3CC3)CC2)cc1	inactive: 20.2%
COc1ccc(CNC(=O)c2ccc(Cn3c(=O)c4cccn4c4cccnc43)cc2)cc1OC	inactive: -7.59%
O=c1c2sc3ccccc3c2n(Cc2cccc(C(F)(F)F)c2)c(=O)n1Cc1ccco1	inactive: -2.57%
CN1CCN(CCCNC(=O)c2cnn(-c3ccccc3)c2-n2cccc2)CC1	inactive: 12.7%
CC(C)(C)C(=O)CSc1nc2ccsc2c(=O)n1Cc1ccccc1F	inactive: -37.1%
Cc1ccc(C)c(-c2nc(Cn3c(=O)cc(-c4ccccc4)c4c(C)nn(C)c43)c(C)o2)c1	inactive: -9.81%
CC(C(O)c1ccccc1)N(C)CCOC(c1ccccc1)c1ccccc1 (centres undefined)	inactive: 29.5%
CCCOc1ccc(C(=O)Nc2cc(-c3nc4cc(C)cc(C)c4o3)ccc2C)cc1	inactive: 37.1%
CN1C(=O)c2ccccc2Sc2ccc(NC(=O)N3CCN(c4ccccc4F)CC3)cc21	inactive: -4.62%
Clc1ccc(CCNC(c2nnc(-c3ccccc3)o2)c2ccccc2Cl)cc1 (centres undefined)	inactive: -36.5%
CC(C)NC(=O)C1CCN(C(=O)N2CCOc3ccc(Cl)cc32)CC1	inactive: -14%
Cc1ccc(-c2noc(-c3ccc(N4CCCCC4)c([N+](=O)[O-])c3)n2)cc1	inactive: 3.14%
CNC(=O)COc1ccc(NC(=O)c2ccc(-c3nn(C)c(=O)c4ccccc34)cc2)cc1	inactive: 25.4%
CCn1c(SCc2ccccc2Cl)nc(=O)c2c(C(=O)OC)cc(C3CC3)nc21	inactive: -5.34%
COc1cc(-c2noc(-c3cc(C(C)C)[nH]n3)n2)cc(OC)c1OC	inactive: -11.2%
Cc1cc(C)c2c(-n3cccc3)c(C(=O)NCCCN3CCCCC3C)sc2n1 (centres undefined)	inactive: -12.7%
O=C(O)[C@H](O)[C@@H](O)[C@H](O[C@@H]1O[C@H](CO)[C@H](O)[C@H](O)[C@H]1O)[C@H](O)CO	inactive: -3.03%
